# Experimental data: patent publication US7741443 (CRUCELL HOLLAND B V, dated 2010)
# T1: human C-type lectin (human, UniProt Q5QGZ9 1-265)
# T1 construct: also called antigen recognized by SC02-357; protein encoded by the 7H10-A cDNA insert
# T1 sequence: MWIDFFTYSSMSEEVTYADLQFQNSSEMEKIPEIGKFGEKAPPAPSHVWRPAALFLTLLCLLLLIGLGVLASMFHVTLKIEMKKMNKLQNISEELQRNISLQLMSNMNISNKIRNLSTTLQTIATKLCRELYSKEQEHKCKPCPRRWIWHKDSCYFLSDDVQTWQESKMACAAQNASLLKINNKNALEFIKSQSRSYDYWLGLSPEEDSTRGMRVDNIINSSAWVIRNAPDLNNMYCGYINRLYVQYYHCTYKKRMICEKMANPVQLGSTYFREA
# B1: SC02-357 phage antibody (scFv)
# scFv: QVQLQESGPGLVKPSETLSLTCVVSGGSISSSNWWSWVRQPPGKGLEWIGEIYHSGSPDYNPSLKSRVTISVDKSRNQFSLKLSSVTAADTAVYYCAKVSTGGFFDYWGQGTLVTVSSGGGGSGGGGSGGGGSEIELTQSPSSLSASVGDRVTIT[letters of about 80 residues not shown]FGPGTKVEIK
# notes: also called scFv SC02-357
# B2: SC02-378 phage antibody (scFv)
# scFv: QVQLQESGPGLVKPSETLSLTCVVSGGSISSSNWWSWVRQPPGKGLEWIGEIYHSGSPNYNPSLKSRVTISVDKSKNQFSLKLSSVTAADTAVYYCARSSSGGFFDYWGQGTLVTVSSGGGGSGGGGSGGGGSEIELTQSPSSLSASVGDRVTIT[letters of about 80 residues not shown]FGQGTKVEIKRAAA
# notes: Same light chain as SC02-357; also called scFv SC02-378
# B3: SC02-161 phage antibody (scFv)
# scFv: QVQLQESGPGLVKPSETLSLTCVVSGGSISSSNWWSWVRQPPGKGLEWIGEIYHSGSPNYNPSLKSRVTISVDKSKNQFSLKLSSVTAADTAVYYCARQTTAGSFDYWGQGTLVTVSSGGGGSGGGGSGGGGSEIELTQSPSSLSASVGDRVTIT[letters of about 80 residues not shown]FGQGTKVEIKRAAA
# notes: Same light chain as SC02-357; also called scFv SC02-161
# Experiments:
# human C-type lectin [1] = molecular target: T1, human C-type lectin; assay: flow cytometry of phage antibody on 293T cells transfected with plasmid 7H10-A (human C-type lectin) or mock; anti-M13 biotin and streptavidin-PE (FL2-H)
# human C-type lectin [2] = molecular target: T1, human C-type lectin; assay: flow cytometry, phage antibody on 293T cells transfected with plasmid 7H10-A (data not shown)
Binder,binding result (human C-type lectin [1]),binding result (human C-type lectin [2])
B1,binds,
B2,,binds
B3,,binds
